Among the data in the antibiotic and cytotoxicity screens of Wong et al. (2023) are cytotoxicity call and growth inhibition call values, retold here.

One assay deals with HSkMC. The assay can be described thus: cytotoxicity call (relative viability < 0.9). The settings on record: 10 µM.
The test system of another assay is HepG2. The assay can be described thus: cytotoxicity call (relative viability < 0.9). The settings on record: 10 µM.
The test system of another assay is S. aureus RN4220. In words: growth inhibition call (relative growth <= 0.2). The settings on record: 50 µM.

The other results are listed elsewhere or left out.

Consider `Cc1ccc(S(=O)(=O)N(c2cccc(-n3cc(CCC(=O)NO)nn3)c2)S(=O)(=O)c2ccc(C)cc2)cc1`, for which the cytotoxicity call in the assay on HSkMC and in the assay on HepG2 was “active” in each case. Moreover, the growth inhibition call in the assay with S. aureus RN4220 is “active”.

`COc1ccc(S(=O)(=O)N(C)C[C@H]2OCCCC[C@@H](C)Oc3ccc(NC(=O)Nc4c(C)noc4C)cc3C(=O)N([C@@H](C)CO)C[C@H]2C)cc1`: the cytotoxicity call in the assay on HSkMC and with HepG2 was “inactive” throughout. Moreover, the growth inhibition call with S. aureus RN4220 is “inactive”.

Regarding `COc1ccc(S(=O)(=O)N(C)C[C@@H]2Oc3ccc(NS(=O)(=O)c4ccccc4)cc3CC(=O)N([C@@H](C)CO)C[C@H]2C)cc1`, in the assay with HSkMC, the cytotoxicity call was “inactive”. In the assay with HepG2, the cytotoxicity call is “active”. For the same compound, the growth inhibition call in the assay on S. aureus RN4220 was “inactive”.

With `COc1cccc(OC)c1NC(=O)N1[C@@H]2CC[C@@H](C2)[C@H]1c1nc2cccc(OCc3ccc(F)cc3)c2[nH]1`, the cytotoxicity call in the assay on HSkMC and with HepG2 was “inactive” in each case. For the same compound, in the assay with S. aureus RN4220, the growth inhibition call was “inactive”.

As for `C[C@H]1CN([C@@H](C)CO)C(=O)c2cc(NC(=O)Cn3cnnn3)ccc2O[C@H]1CN(C)C(=O)Nc1ccc2c(c1)OCO2`, the cytotoxicity call with HSkMC and in the assay on HepG2 was “inactive” each time. Also, the growth inhibition call in the assay on S. aureus RN4220 was “inactive”.

Regarding `Cc1ccc(S(=O)(=O)Nc2ccc3c(c2)CC(=O)N([C@H](C)CO)C[C@@H](C)[C@@H](CN(C)C(=O)Nc2ccc(C(F)(F)F)cc2)O3)cc1`, the cytotoxicity call in the assay with HSkMC and in the assay with HepG2 was “inactive” in each case. The growth inhibition call in the assay on S. aureus RN4220 is “inactive”.

With `C[C@H](CO)N1C[C@H](C)[C@@H](CN(C)Cc2ccc(Cl)c(Cl)c2)Oc2c(NS(=O)(=O)c3cccs3)cccc2C1=O`, the cytotoxicity call in the assay with HSkMC and in the assay on HepG2 was “inactive” in each case. In addition, in the assay on S. aureus RN4220, the growth inhibition call was “inactive”.

For `COc1ccc(S(=O)(=O)Nc2cccc3c2O[C@@H](CN(C)C(=O)Nc2c(C)noc2C)[C@@H](C)CN([C@@H](C)CO)C3=O)cc1`, the cytotoxicity call in the assay with HSkMC and with HepG2 was “inactive” in each case. The growth inhibition call with S. aureus RN4220 is “inactive”.

Regarding `O=C(Nc1ccc(F)cc1)N[C@@H]1C[C@@H]2O[C@H](CO)CC[C@@H]2O[C@@H]1CCc1ccc(-c2ccccc2)cc1`, the cytotoxicity call in the assay with HSkMC and in the assay with HepG2 was “inactive” throughout. The growth inhibition call in the assay on S. aureus RN4220 was “inactive”.

Regarding `CC1(C)C2CCC1(C)C(O)C2` (stereo not drawn), the cytotoxicity call in the assay on HSkMC and with HepG2 was “inactive” throughout. Further, the growth inhibition call in the assay on S. aureus RN4220 is “inactive”.

On to `COc1cccc(S(=O)(=O)N(C)C[C@H]2OCc3cn(nn3)CCCC(=O)N([C@H](C)CO)C[C@H]2C)c1`, for which the cytotoxicity call in the assay with HSkMC and in the assay with HepG2 was “inactive” each time. In the assay on S. aureus RN4220, the growth inhibition call was “inactive”.

As to `C[C@@H]1CCCCO[C@H](CN(C)Cc2ccc(C(=O)O)cc2)[C@@H](C)CN([C@H](C)CO)C(=O)c2cc(NS(=O)(=O)c3ccc(F)cc3)ccc2O1`, the cytotoxicity call in the assay on HSkMC and in the assay with HepG2 was “inactive” in each case. In addition, the growth inhibition call in the assay with S. aureus RN4220 was “inactive”.

For the compound `C[C@@H]1CN([C@H](C)CO)C(=O)c2cc(NC(=O)Nc3cccc4ccccc34)ccc2O[C@@H](C)CCCCO[C@@H]1CN(C)Cc1ccc(C(F)(F)F)cc1`, the cytotoxicity call with HSkMC and in the assay on HepG2 was “inactive” each time. For the same compound, in the assay on S. aureus RN4220, the growth inhibition call was “inactive”.

Take `C[C@H](CO)N1C[C@H](C)[C@H](CN(C)C(=O)CN2CCOCC2)Oc2ncc(C#C[C@@H](C)O)cc2C1=O`: the cytotoxicity call with HSkMC and with HepG2 was “inactive” each time. In addition, in the assay with S. aureus RN4220, the growth inhibition call is “inactive”.

For the compound `C[C@@H]1CN([C@H](C)CO)C(=O)Cc2cc(NC(=O)Cc3ccccc3)ccc2O[C@@H]1CN(C)C(=O)Nc1ccc(C(F)(F)F)cc1`, the cytotoxicity call in the assay with HSkMC and in the assay on HepG2 was “inactive” each time. Besides, the growth inhibition call with S. aureus RN4220 is “inactive”.

For `COc1ccc(S(=O)(=O)N(C)C[C@@H]2Oc3ccc(NS(=O)(=O)c4cccs4)cc3CC(=O)N([C@@H](C)CO)C[C@@H]2C)cc1`, the cytotoxicity call in the assay on HSkMC and with HepG2 was “inactive” each time. In the assay on S. aureus RN4220, the growth inhibition call was “inactive”.

For the compound `COc1ccc(CN(C)C[C@@H]2Oc3c(NC(=O)c4ccc(-c5nccs5)cc4)cccc3C(=O)N([C@H](C)CO)C[C@@H]2C)cc1`, the cytotoxicity call in the assay with HSkMC and in the assay with HepG2 was “inactive” each time. For the same compound, the growth inhibition call with S. aureus RN4220 was “inactive”.

Turning to `C[C@@H]1CCCCO[C@@H](CN(C)Cc2ccc3c(c2)OCO3)[C@H](C)CN([C@@H](C)CO)C(=O)c2cc(NS(=O)(=O)c3ccc(Cl)cc3)ccc2O1`, the cytotoxicity call with HSkMC and in the assay on HepG2 was “inactive” in each case. The growth inhibition call in the assay with S. aureus RN4220 is “inactive”.

Consider `CCC(=O)N[C@H]1CC[C@H](CC(=O)OC)O[C@H]1CO`, for which the cytotoxicity call with HSkMC and in the assay on HepG2 was “inactive” each time. For the same compound, the growth inhibition call with S. aureus RN4220 was “inactive”.

With `C[C@@H]1CN([C@H](C)CO)C(=O)c2cc(C#CCN(C)C)cnc2O[C@H]1CN(C)Cc1ccc(C(=O)O)cc1`, the cytotoxicity call in the assay with HSkMC and in the assay on HepG2 was “inactive” in each case. In addition, in the assay on S. aureus RN4220, the growth inhibition call is “inactive”.

As for `Cc1ccc(S(=O)(=O)Nc2ccc3c(c2)C(=O)N([C@@H](C)CO)C[C@H](C)[C@H](CN(C)Cc2ccc(-c4ccccc4)cc2)O3)cc1`, the cytotoxicity call in the assay on HSkMC and with HepG2 was “inactive” in each case. Besides, the growth inhibition call in the assay with S. aureus RN4220 was “inactive”.

Regarding `C[C@H]1CN([C@@H](C)CO)C(=O)c2cccc(NC(=O)CCCCCC(=O)Nc3ccccc3N)c2O[C@H]1CN(C)Cc1ccc(C(F)(F)F)cc1`, the cytotoxicity call with HSkMC and in the assay with HepG2 was “inactive” in each case. Besides, in the assay on S. aureus RN4220, the growth inhibition call was “inactive”.

As for `Cc1ccc(S(=O)(=O)N(C)C[C@H]2Oc3ccc(NS(C)(=O)=O)cc3CC(=O)N([C@H](C)CO)C[C@H]2C)cc1`, the cytotoxicity call in the assay with HSkMC and in the assay on HepG2 was “inactive” throughout. Further, the growth inhibition call with S. aureus RN4220 was “inactive”.

Regarding `Cc1ccc(S(=O)(=O)Nc2ccc3c(c2)C(=O)N([C@H](C)CO)C[C@H](C)[C@@H](CN(C)C(=O)Nc2c(C)noc2C)OCCCC[C@H](C)O3)cc1`, the cytotoxicity call in the assay on HSkMC (human skeletal muscle cells) and with HepG2 was “inactive” throughout. Besides, in the assay on S. aureus RN4220, the growth inhibition call was “inactive”.

`C=CC[C@@H](CC(=O)N(CCO)Cc1ccccc1)C(=O)NC[C@H](OC(=O)[C@@H](CC=C)Cc1ccc(F)cc1)c1ccccc1`: the cytotoxicity call in the assay with HSkMC was “active”. For the same compound, the cytotoxicity call with HepG2 is “inactive”. The growth inhibition call with S. aureus RN4220 is “inactive”.

On to `C[C@@H]1CN([C@@H](C)CO)C(=O)c2cc(NC(=O)Cn3cnnn3)ccc2O[C@@H]1CN(C)C(=O)Nc1ccc2c(c1)OCO2`, for which the cytotoxicity call in the assay with HSkMC and in the assay with HepG2 was “inactive” throughout. The growth inhibition call in the assay with S. aureus RN4220 was “inactive”.
